The supplement of paper PMC6135742
Structures can show the parent of a compound that is named as a salt. ± gives the standard deviation of the averaged measurements. Whole data set: some 2,600 compounds, median “MBP+ mature oligodendrocyte number relative to DMSO vehicle control” near -0.34, cut for the highest 2% near 13. This is one part of the list.

The compounds below were run on jimpy (Plp1 jimpy) mouse iPSC-derived oligodendrocyte progenitor cells (assay: MBP+ mature oligodendrocyte number relative to DMSO vehicle control (SDs above negative control mean); higher = more surviving jimpy oligodendrocytes (rescue)). Settings: 10 µM; 3 days.
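Note: 10 µM single dose with 3-day oligodendrocyte differentiation.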

Row | SMILES | MBP+ mature oligodendrocyte number
1 | CC[C@H](NC(=O)[C@H](C)NC)C(=O)N1C[C@@H](O)C[C@H]1Cc1c(-c2[nH]c3cc(F)ccc3c2C[C@@H]2C[C@H](O)CN2C(=O)[C@H](CC)NC(=O)[C@H](C)NC)[nH]c2cc(F)ccc12 [Birinapant] | -5.76
2 | CC(C)N(CC[C@H](c1ccccc1)c1cc(CO)ccc1O)C(C)C | 4.23
3 | Cn1cc(C(F)(F)F)nc1-c1ccc(OCC(O)CNCCOc2ccc(O)c(C(N)=O)c2)cc1 (stereo not given) | 6.1
4 | CN1CCN2c3ncccc3Cc3ccccc3C2C1 (stereo not given) [Mirtazapine] | 0.163
5 | CC(C)(Oc1ccc(Cl)cc1)C(=O)OCCOC(=O)c1cccnc1 [Etofibrate] | 2.26
6 | CC1(C)O[C@@H]2C[C@H]3[C@@H]4C[C@H](F)C5=CC(=O)C=C[C@]5(C)[C@@]4(F)[C@@H](O)C[C@]3(C)[C@]2(C(=O)CO)O1 [Fluocinolone Acetonide] | 8.12
7 | Cc1cc(C)nc(NS(=O)(=O)c2ccc(N)cc2)n1 [Sulfamethazine] | 1.37
8 | C[C@]12CC[C@@H]3c4ccc(O)cc4C[C@@H](CCCCCCCCC[S+]([O-])CCCC(F)(F)C(F)(F)F)[C@H]3[C@@H]1CC[C@@H]2O (stereo not given in full) [Fulvestrant] | 5.94 ± 4.3
9 | Clc1ccc(C2(c3ccc(-c4cn[nH]c4)cc3)CCNCC2)cc1 | < -5.15
10 | CO/N=C(\C(=O)N[C@@H]1C(=O)N2C(C(=O)O)=C(COC(C)=O)CS[C@H]12)c1csc(N)n1 [Cefotaxime sodium] | -0.943
11 | C=C[C@](C)(O)CC[C@@H]1[C@@]2(C)CCCC(C)(C)[C@@H]2CC[C@@]1(C)O [Sclareol] | < -4.81
12 | CCS(=O)(=O)c1cccc(-c2cc(C(=O)NC3CCN(C)CC3)c(C)c3[nH]c4ncc(C)cc4c23)c1 | < -6.01
13 | COC(=O)[C@H](Cc1ccccc1)NC(=O)[C@@H](N)CC(=O)O [Aspartame] | 0.973
14 | CCOC(=O)C1=C(N)Oc2ccc(Br)cc2C1C(C#N)C(=O)OCC (stereo not given) | 1.51
15 | N#C/C(=C1/SC[C@@H](c2ccc(Cl)cc2Cl)S1)n1ccnc1 [Luliconazole] | 19.8
16 | CCCCOc1cc(C(=O)OCCN(CC)CC)ccc1N [Oxybuprocaine HCl] | 7.92
17 | O=C1O[C@H]([C@@H](O)CO)C([O-])=C1O.[Na+] [Sodium ascorbate] | -0.523
18 | Cc1cc(Nc2cc(N3CCN(C)CC3)nc(Sc3ccc(NC(=O)C4CC4)cc3)n2)n[nH]1 [VX-680 (Tozasertib, MK-0457)] | < -6.7
19 | Clc1ccc2nsnc2c1NC1=NCCN1 [Tizanidine HCl] | 2.2
20 | Clc1ccc2nsnc2c1NC1=NCCN1 [Tizanidine hydrochloride] | 0.896
21 | CC(=O)Nc1nnc(S(N)(=O)=O)s1 [Acetazolamide] | -0.786
22 | CCCCOc1ccc(C(=O)Nc2ccc(F)cc2F)cc1 | 6.85
23 | Nc1nc(OCc2cc(Br)cs2)c2[nH]cnc2n1 [Lomeguatrib] | 1.35 ± 0.6
24 | CC(C)Oc1ccc2c(=O)c(-c3ccccc3)coc2c1 [Ipriflavone (Osteofix)] | 1.12

Row | SMILES | MBP+ mature oligodendrocyte number
25 | NC1(Cc2ccc(Cl)cc2)CCN(c2ncnc3[nH]ccc23)CC1 | < -6.01
26 | O=C(O)CCC(C(=O)O)N1C(=O)c2ccccc2C1=O [L-Glutamic acid, N-phthaloyl-] | 0.108
27 | Cc1cc(C(C)Nc2ccccc2)c2nc(N3CCOCC3)cc(=O)n2c1 (stereo not given) | -4.08
28 | CCc1cc2c(cc1CC)CC(NC[C@H](O)c1ccc(O)c3[nH]c(=O)ccc13)C2 [Indacaterol Maleate] | -4.98
29 | c1cc(CN2CCCCC2)cc(OCCCNc2nc3ccccc3s2)c1 | -2.5
30 | Cc1c(-c2ccc(O)cc2)n(Cc2ccc(OCCN3CCCCCC3)cc2)c2ccc(O)cc12 [Bazedoxifene HCl] | < -4.81
31 | C=C[C@]1(C)C[C@@H](OC(=O)CSC(C)(C)CNC(=O)[C@H](N)C(C)C)[C@]2(C)[C@H](C)CC[C@]3(CCC(=O)[C@H]32)[C@@H](C)[C@@H]1O [Valnemulin HCl] | -3.9
32 | CCN(CC)CCNC(=O)c1ccc(N)cc1 [Procainamide hydrochloride] | -0.104
33 | NC[C@H](O)c1ccc(O)c(O)c1 [Noradrenaline bitartrate monohydrate] | 0.342
34 | c1ccc2c(c1)CC(N1CCN(c3cccc4c3OCCO4)CC1)C2 | 9.4
35 | CCn1c(N)c(C(=O)NC)c(=O)c2ccc(C#CC(C)(O)COC)nc21 (stereo not given) | -2.67
36 | CC[C@H]1OC(=O)[C@H](C)[C@@H](O[C@H]2C[C@@](C)(OC)[C@@H](O)[C@H](C)O2)[C@H](C)[C@@H](O[C@@H]2O[C@H](C)C[C@H](N(C)C)[C@H]2O)[C@](C)(O)C[C@@H](C)CN(C)[C@H](C)[C@@H](O)[C@]1(C)O [Azithromycin] | -4.61
37 | CC[C@H]1OC(=O)[C@H](C)[C@@H](O[C@H]2C[C@@](C)(OC)[C@@H](O)[C@H](C)O2)[C@H](C)[C@@H](O[C@@H]2O[C@H](C)C[C@H](N(C)C)[C@H]2O)[C@](C)(O)C[C@@H](C)CN(C)[C@H](C)[C@@H](O)[C@]1(C)O [Azithromycin dihydrate] | -3.22
38 | CN1CCc2nc(C(=O)N[C@@H]3C[C@@H](C(=O)N(C)C)CC[C@@H]3NC(=O)C(=O)Nc3ccc(Cl)cn3)sc2C1 [Edoxaban] | 2.6
39 | OCCn1cc(-c2ccc3c(c2)CC/C3=N\O)c(-c2ccncc2)n1 | 1.07
40 | CN[C@H]1CC[C@@H](c2ccc(Cl)c(Cl)c2)c2ccccc21 [Sertraline hydrochloride] | < -3.97
41 | CN[C@H]1CC[C@@H](c2ccc(Cl)c(Cl)c2)c2ccccc21 [Sertraline HCl] | < -6.35
42 | COCCNC(=O)COc1ccc(OCCNC[C@H](O)COc2ccccc2)cc1 [ZD 7114 hydrochloride] | 0.816
43 | O=C(O)c1cccc(-c2noc(-c3ccccc3F)n2)c1 [Ataluren (PTC124)] | 4.97
44 | Nc1ccc(S(=O)(=O)Nc2nccs2)cc1 [Sulfathiazole] | 0.342
45 | Cc1ccc(-c2cc(C(F)(F)F)nn2-c2ccc(S(N)(=O)=O)cc2)cc1 [Celecoxib] | 2.77 ± 1.8
46 | CC(C)[N+]1(C)[C@@H]2CC[C@H]1C[C@@H](OC(=O)C(CO)c1ccccc1)C2 (stereo not given in full) [Ipratropium bromide] | -0.439
47 | CC(C)[N+]1(C)[C@@H]2CC[C@H]1C[C@@H](OC(=O)C(CO)c1ccccc1)C2 (stereo not given in full) [Ipratropium Bromide] | 0.883
48 | C=CC(=O)Nc1cccc(Sc2nc(Nc3ccc(N4CCN(C)CC4)cc3)ncc2Cl)c1 | < -6.7

Row | SMILES | MBP+ mature oligodendrocyte number
49 | CNCCc1cnc(CCC(c2ccccc2)c2ccccc2)[nH]1 [N-Methylhistaprodifen dioxalate salt] | < -4.47
50 | CCOC(=O)[C@H]1O[C@@H]1C(=O)N[C@@H](CC(C)C)C(=O)NCCC(C)C [Aloxistatin] | -3.44
51 | O=C1c2c(O)cc(O)cc2O[C@H](c2ccc(O)c(O)c2)[C@H]1O (racemic) [(±)-Taxifolin] | 0.753
52 | CC(C)NC[C@@H](C(=O)N1CCN(c2ncnc3c2[C@H](C)C[C@H]3O)CC1)c1ccc(Cl)cc1 | < -6.01
53 | Cc1ccc([C@@H]2O[C@H](CO)[C@@H](O)[C@H](O)[C@H]2O)cc1Cc1ccc(-c2ccc(F)cc2)s1 [Canagliflozin] | 1.14
54 | CC(C)(C)c1cc(C(C)(C)C)c(NC(=O)c2c[nH]c3ccccc3c2=O)cc1O [Ivacaftor (VX-770)] | 5
55 | CN1CCN(CC(=O)N2c3ccccc3C(=O)Nc3cccnc32)CC1 [Pirenzepine dihydrochloride] | 1.68
56 | COC(=O)Nc1nc2cc(Sc3ccccc3)ccc2[nH]1 [Fenbendazole] | -2.63
57 | COc1cccc(C=NCCN=Cc2cccc(OC)c2[O-])c1[O-].[Cl-].[Mn+3] | 5.98
58 | COCC(=O)NC/C=C/c1ccc2ncnc(Nc3ccc(Oc4ccc(C)nc4)c(C)c3)c2c1 | -1.2
59 | Cn1c(=O)c2c(ncn2CC2OCCO2)n(C)c1=O [Doxofylline] | 4.21
60 | NC[C@@H]1O[C@H](C23CC4CC(CC(C4)C2)C3)Cc2c1ccc(O)c2O | < -3.34
61 | CCOc1nc2cccc(C(=O)O)c2n1Cc1ccc(-c2ccccc2-c2nnn[nH]2)cc1 [Candesartan] | 0.433
62 | C[C@@](Cc1ccc(O)c(O)c1)(NN)C(=O)O [Carbidopa] | -0.737
63 | C=CC(=O)Nc1cccc(Oc2nc(Nc3ccc(N4CCN(C)CC4)cc3)ncc2Cl)c1 | < -6.7
64 | Nc1ncnc2c1ncn2[C@@H]1O[C@H](CO)[C@@H](O)[C@@H]1O [Vidarabine] | -4.07
65 | CC(=O)OC[C@H]1O[C@@H]([S-])[C@H](OC(C)=O)[C@@H](OC(C)=O)[C@@H]1OC(C)=O.CCP(CC)CC.[Au+] [Auranofin] | < -3.85
66 | CCCCCCCCCC(=O)N[C@@H](Cc1c[nH]c2ccccc12)C(=O)N[C@H](CC(N)=O)C(=O)N[C@@H](CC(=O)O)C(=O)N[C@@H]1C(=O)NCC(=O)N[C@@H](CCCN)C(=O)N[C@@H](CC(=O)O)C(=O)N[C@H](C)C(=O)N[C@@H](CC(=O)O)C(=O)NCC(=O)N[C@H](CO)C(=O)N[C@@H]([C@H](C)CC(=O)O)C(=O)N[C@@H](CC(=O)c2ccccc2N)C(=O)O[C@@H]1C [Daptomycin] | -0.24
67 | COc1cc(Nc2c(C#N)cnc3cc(OCCCN4CCN(C)CC4)c(OC)cc23)c(Cl)cc1Cl [Bosutinib] | < -3.34
68 | COc1cc(Nc2c(C#N)cnc3cc(OCCCN4CCN(C)CC4)c(OC)cc23)c(Cl)cc1Cl [Bosutinib (SKI-606)] | < -6.7
69 | CCCCc1oc2ccc(NS(C)(=O)=O)cc2c1C(=O)c1ccc(OCCCN(CCCC)CCCC)cc1 [Dronedarone HCl] | < -4.81
70 | CCC1(c2ccccc2)C(=O)NCNC1=O [Primidone] | -0.543 ± 0.74
